Inconclusive results, whose numbers are uncertain, are shown with a selection of clear calls. For some assays here: No potency is given beside an inconclusive call; the fits are too rough. The source made the active and inactive calls. Unless noted, the call rests on the fitted dose curve; in most records, active means well fitted curve in the direction sought with a large enough effect; inconclusive means small, poorly fitted or top-dose-only effect, or another doubt; inactive means no such curve, though single readings can be large; an effect the other way counts as inactive or inconclusive.
What was measured:
[1] = target: Rap guanine nucleotide exchange factor 3 (Homo sapiens) (UniProt O95398); test: Confirmatory qHTS for antagonist of cAMP-regulated guanine nucleotide exchange factor 3 (EPAC1) (AID 1645880); conditions: EPAC1 Rap1B-BODIPY-GDP exchange, fluorescence; activity, negative = inhibition: at 115 µM (top of the series); further: nearly all actives have a fitted effect of over 55% in size; further: potency means the concentration at half of the fitted maximal effect;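 on activity, negative = inhibition: plate controls were DMSO only for no effect and full effect of the ATA control for full effect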
Procedure, shortened: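 Nucleotide exchange uses 100 nM EPAC1, 250 nM RAP1B-BODIPY-GDP and 50 uM GDP, with compounds in a concentration-titration series. After 5 min at room temperature, fluorescence (480 nm ex/540 nm em) is read every 5 min for 30 min. Data are normalized to control ATA and DMSO.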

[2] = target: Rap guanine nucleotide exchange factor 3 (Homo sapiens) (UniProt O95398); test: Confirmatory qHTS for agonist of cAMP-regulated guanine nucleotide exchange factor 3 (EPAC1) (AID 1645881); conditions: EPAC1 Rap1B BODIPY-GDP exchange fluorescence; activation: at 154 µM (top of the series), 100% = cAMP control response; further: nearly all actives have a fitted effect of over 75% in size; further: potency means the concentration at half of the fitted maximal effect;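 on activation: EPAC1 catalysed release of BODIPY-GDP from Rap1B seen as fluorescence loss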
[3] = target: Rap guanine nucleotide exchange factor 4 (Homo sapiens) (UniProt Q8WZA2); test: Confirmatory qHTS for agonist of cAMP-regulated guanine nucleotide exchange factor 4 (EPAC2) (AID 1645884); conditions: EPAC2 GEF activity, Rap1B-BODIPY-GDP fluorescence; activation: at 154 µM (top of the series), percent relative to cAMP agonist control;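 further: nucleotide exchange releases bodipy-GDP from Rap1 and this lowers its fluorescence; potency means the concentration at half of the fitted maximal effect; nearly all actives have a fitted effect of over 65% in size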
[4] = target: Rap guanine nucleotide exchange factor 4 (Homo sapiens) (UniProt Q8WZA2); test: Confirmatory qHTS for antagonist of cAMP-regulated guanine nucleotide exchange factor 4 (EPAC2) (AID 1645885); conditions: activity change, negative = inhibition: at 12.7 µM (top of the series) unless noted; further: nearly all actives have a fitted effect of over 25% in size; further: potency means the concentration at half of the fitted maximal effect; on activity change, negative = inhibition: on the % scale 0 is the no-effect control and ±100 the full control effect
[5] = target: Rap guanine nucleotide exchange factor 3 (Homo sapiens) (UniProt O95398); test: Counterscreen qHTS for agonist of cAMP-regulated guanine nucleotide exchange factor 3 (EPAC1) (AID 1645889); conditions: EPAC1 Rap1B-BODIPY-GDP exchange, fluorescence; activation: at 154 µM (top of the series) unless noted; further: nearly all actives have a fitted effect of over 40% in size; further: potency means the concentration at half of the fitted maximal effect; on activation: % of control where 0% means no effect
Procedure, shortened: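 Rap1B-BODIPY-GDP 250 nM + GDP 50 uM; cpds 7-pt, final 9.74 nM–152 uM (activator mode) or from 7.32 nM upwards (inhibitor mode); RT; FI 480/540 nm at 5 and 30 min, then ± cAMP, reread.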

[6] = NFAT Signaling Pathway (AID 444; active means well fitted curve in either direction with a large enough effect, not every such curve was filed as active; inconclusive means small, poorly fitted or top-dose-only effect, or another doubt;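 further: carbachol stimulus at about its EC50 of 1 µM final; on the % scale 0 is the no-effect control and ±100 the full control effect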); conditions: Jurkat NFAT-bla M1, carbachol, beta-lactamase ratio, 5 h; at 7.69 µM (top of the series) unless noted
Procedure, shortened: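 Read-out: CCF4 FRET ratio (460 nm/530 nm) after 1 h RT dye loading, used for %activity and AC50 from titration series. Cells: Jurkat NFAT-β-lactamase/M1 line, treated with compound plus 1 uM carbachol for 5 h, 37 °C.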

[7] = target: Cytochrome P450 2C9 (Homo sapiens) (UniProt P11712); test: qHTS Assay for Inhibitors and Substrates of Cytochrome P450 2C9 (AID 883); further: potency means the concentration at half of the fitted maximal effect; nearly all actives have a fitted effect of over 60% in size
Procedure, shortened: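 Turnover of Luciferin-H (100uM, KM) by 10nM human CYP2C9 was measured over 60 min at 37C with NADPH regeneration; inhibitors and some substrates reduce luminescence. Data normalized to sulphaphenazole 57uM.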

[8] = target: Cytochrome P450 2D6 (Homo sapiens) (UniProt P10635); test: qHTS Assay for Inhibitors and Substrates of Cytochrome P450 2D6 (AID 891);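 further: luciferin methyl ether substrate demethylated by CYP2D6 with NADPH regeneration; potency means the concentration at half of the fitted maximal effect; nearly all actives have a fitted effect of over 60% in size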
Procedure, shortened: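 Human CYP2D6 (5 nM) with 30 uM Luciferin-ME EGE (at Km) in 100 mM KPO4, compound preincubated 10 min, then NADPH regeneration system for 60 min at room temperature. Luciferin read by luminescence; normalized to 1.43 uM quinidine.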

[9] = qHTS Assay for Identification of Small Molecule Agonists for Hypoxia Response Element Signaling Pathway (AID 914; active means well fitted activation curve with a large enough effect in the signal ratio, with a control signal flat, not every such curve was filed as active; inconclusive means small, poorly fitted or top-dose-only effect, or effect the other way, or a change in a side signal; the % refers to the signal ratio; further: top concentration of the series differs between compounds; % of control where 0% means no effect); conditions: ME-180 (cervical carcinoma) HRE-bla reporter, beta-lactamase ratio, CoCl2, 17 h; activation: stronger effect = higher value
Procedure, shortened: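 HRE-bla ME-180 assay for agonist-like enhancement of an EC50 CoCl2 stimulus: 17 h at 37 degrees Celsius, CCF4 for 2.5 h, ratiometric 460/530 nm signal converted to %Activity and fitted to AC50.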

[10] = qHTS for Inhibitors of the vitamin D receptor (VDR): Hit Validation using a Texas Red Assay (AID 602201); further: potency means the concentration at half of the fitted maximal effect
Procedure, shortened: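 After a 2-hour room-temperature incubation, polarization of Texas-Red emission was read (Ex 595 nm/Em 615 nm). Final mix contained 7 nM Texas Red, 1.5 uM VDR-LBD and LG19078.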

[11] = qHTS for Inhibitors of the vitamin D receptor (VDR): Hit Validation using a Cytotoxicity Assay (AID 602204);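 further: cells co-treated with VDR agonist LG190178 at 300 nM; potency means the concentration at half of the fitted maximal effect; nearly all actives have a fitted effect of over 75% in size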
Procedure, shortened: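 Each well held 20,000 cells, incubated 4 h before compounds went in. An 18 h treatment preceded addition of ATP-sensing luminescent reagent, with reading after 30 min; cycloheximide and DMSO controlled the window.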
Tags describe the fitted curve by direction and shape.

Chain of UniProt O95398 (O95398 whole entry, looked up): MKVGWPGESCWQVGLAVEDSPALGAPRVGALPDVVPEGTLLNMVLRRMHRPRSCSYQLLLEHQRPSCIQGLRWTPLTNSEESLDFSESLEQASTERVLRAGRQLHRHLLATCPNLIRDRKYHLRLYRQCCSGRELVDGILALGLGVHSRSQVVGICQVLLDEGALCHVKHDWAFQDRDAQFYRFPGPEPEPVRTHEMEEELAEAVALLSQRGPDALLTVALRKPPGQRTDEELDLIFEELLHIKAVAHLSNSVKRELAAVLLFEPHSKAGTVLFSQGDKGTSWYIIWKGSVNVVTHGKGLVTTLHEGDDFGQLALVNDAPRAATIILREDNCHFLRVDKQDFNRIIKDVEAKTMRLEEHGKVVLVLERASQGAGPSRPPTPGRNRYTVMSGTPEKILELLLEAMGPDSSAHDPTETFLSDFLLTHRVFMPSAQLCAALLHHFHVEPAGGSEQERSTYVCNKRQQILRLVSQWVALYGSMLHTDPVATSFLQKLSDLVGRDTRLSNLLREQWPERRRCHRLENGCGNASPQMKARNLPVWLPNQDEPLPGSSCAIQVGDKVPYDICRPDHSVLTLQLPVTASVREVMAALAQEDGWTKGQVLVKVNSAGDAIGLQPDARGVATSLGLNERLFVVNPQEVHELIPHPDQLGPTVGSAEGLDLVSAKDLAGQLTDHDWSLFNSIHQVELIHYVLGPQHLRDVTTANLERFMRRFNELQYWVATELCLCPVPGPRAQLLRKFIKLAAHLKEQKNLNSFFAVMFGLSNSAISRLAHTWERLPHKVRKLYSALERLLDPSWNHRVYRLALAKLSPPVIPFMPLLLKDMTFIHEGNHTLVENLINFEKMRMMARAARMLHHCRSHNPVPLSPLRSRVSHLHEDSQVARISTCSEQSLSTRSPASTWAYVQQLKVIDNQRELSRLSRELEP
Chain of UniProt Q8WZA2 (Q8WZA2 whole entry, looked up): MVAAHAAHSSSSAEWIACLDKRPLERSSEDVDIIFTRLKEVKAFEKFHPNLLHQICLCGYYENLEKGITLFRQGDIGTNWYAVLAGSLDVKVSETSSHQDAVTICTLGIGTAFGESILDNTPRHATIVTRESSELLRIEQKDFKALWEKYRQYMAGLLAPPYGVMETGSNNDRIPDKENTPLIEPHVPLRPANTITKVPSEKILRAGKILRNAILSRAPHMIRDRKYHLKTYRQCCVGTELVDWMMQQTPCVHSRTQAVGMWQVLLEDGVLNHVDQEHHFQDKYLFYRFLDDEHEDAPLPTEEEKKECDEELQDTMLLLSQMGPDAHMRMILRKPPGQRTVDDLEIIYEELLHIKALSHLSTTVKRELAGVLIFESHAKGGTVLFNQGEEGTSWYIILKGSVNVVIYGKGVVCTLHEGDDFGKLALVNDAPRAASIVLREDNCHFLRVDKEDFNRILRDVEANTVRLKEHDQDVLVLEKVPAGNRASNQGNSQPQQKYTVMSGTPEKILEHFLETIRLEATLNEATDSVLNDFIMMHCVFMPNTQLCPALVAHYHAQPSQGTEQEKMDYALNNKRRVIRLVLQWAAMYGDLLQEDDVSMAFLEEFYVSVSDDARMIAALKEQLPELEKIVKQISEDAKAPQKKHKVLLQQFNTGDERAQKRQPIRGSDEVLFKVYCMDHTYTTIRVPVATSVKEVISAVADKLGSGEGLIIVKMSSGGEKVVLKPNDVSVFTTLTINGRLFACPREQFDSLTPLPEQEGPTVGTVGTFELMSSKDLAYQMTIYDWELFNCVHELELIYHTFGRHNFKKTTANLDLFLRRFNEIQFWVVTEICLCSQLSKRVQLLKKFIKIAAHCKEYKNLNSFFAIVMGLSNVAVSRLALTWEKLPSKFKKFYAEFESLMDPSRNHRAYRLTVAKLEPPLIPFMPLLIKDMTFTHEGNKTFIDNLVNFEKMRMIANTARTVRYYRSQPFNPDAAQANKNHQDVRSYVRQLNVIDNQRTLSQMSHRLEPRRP
Chain of UniProt P11712 (P11712 whole entry, looked up): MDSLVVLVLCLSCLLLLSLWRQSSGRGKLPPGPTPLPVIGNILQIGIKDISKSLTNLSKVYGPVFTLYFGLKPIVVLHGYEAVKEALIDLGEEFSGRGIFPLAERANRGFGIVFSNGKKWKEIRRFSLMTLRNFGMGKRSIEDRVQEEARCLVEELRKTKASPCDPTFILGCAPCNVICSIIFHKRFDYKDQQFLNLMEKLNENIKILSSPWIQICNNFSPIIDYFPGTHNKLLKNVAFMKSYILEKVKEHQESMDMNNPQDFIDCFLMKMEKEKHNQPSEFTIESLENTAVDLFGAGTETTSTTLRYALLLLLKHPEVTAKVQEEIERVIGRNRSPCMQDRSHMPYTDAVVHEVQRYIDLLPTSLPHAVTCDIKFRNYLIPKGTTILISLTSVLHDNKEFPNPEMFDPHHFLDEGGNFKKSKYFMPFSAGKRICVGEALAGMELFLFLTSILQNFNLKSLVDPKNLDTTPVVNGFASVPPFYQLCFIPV
Chain of UniProt P10635 (P10635 whole entry, looked up): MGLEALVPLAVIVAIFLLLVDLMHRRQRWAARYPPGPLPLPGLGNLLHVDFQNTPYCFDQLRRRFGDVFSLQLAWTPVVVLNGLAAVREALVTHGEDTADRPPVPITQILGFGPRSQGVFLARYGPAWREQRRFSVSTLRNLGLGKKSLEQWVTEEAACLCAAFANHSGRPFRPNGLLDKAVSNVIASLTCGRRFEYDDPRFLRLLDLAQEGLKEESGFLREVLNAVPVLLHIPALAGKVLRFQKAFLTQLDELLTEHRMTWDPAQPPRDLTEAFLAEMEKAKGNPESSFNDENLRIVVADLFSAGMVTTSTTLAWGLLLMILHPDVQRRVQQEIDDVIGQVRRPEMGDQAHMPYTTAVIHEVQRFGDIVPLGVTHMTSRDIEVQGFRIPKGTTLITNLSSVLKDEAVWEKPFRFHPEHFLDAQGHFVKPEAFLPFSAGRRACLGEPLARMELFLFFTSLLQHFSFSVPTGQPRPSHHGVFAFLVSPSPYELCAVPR

Oc1ccccc1Cc1c(O)ccc2ccccc12
Potency [1]: inconclusive [inhibitor, partial curve] | Potency [2]: inconclusive [activator, full curve, poor fit] | Potency [3]: inconclusive [activator, partial curve, poor fit] | Potency [4]: inconclusive [inhibitor, full curve, poor fit] | activation [5]: inconclusive: 42.5% [activator]

N#C/C(=C\c1ccc(Sc2ccc(Cl)cc2)o1)c1nc2ccccc2[nH]1
Potency [1]: inactive | Potency [2]: inconclusive [activator, single point] | Potency [3]: inconclusive [activator, single point] | Potency [4]: inactive | Potency [5]: inconclusive [activator, partial curve, poor fit]

CCOC(=O)C1CN(S(=O)(=O)c2ccc(C)cc2)c2ccccc2O1 (stereo unspecified)
Potency [1]: inconclusive [inhibitor, partial curve, poor fit] | Potency [2]: inconclusive [activator, partial curve, poor fit] | Potency [3]: inconclusive [activator, partial curve, poor fit] | Potency [4]: inconclusive [inhibitor, full curve] | activation [5]: inconclusive: 28.5% [activator]

Clc1ccccc1NN(Cc1ccncc1)c1ccccc1Cl
activity change, negative = inhibition [6]: inconclusive: -37.8% [inhibitor] | Potency [7]: active: 1.58 µM | Potency [8]: inconclusive [inhibitor, partial curve] | activation [9]: inconclusive: -40.4% | Potency [1]: inactive | Potency [2]: inconclusive [activator, partial curve] | Potency [3]: inconclusive [activator, partial curve, poor fit] | Potency [4]: active: 16.9 µM | Potency [5]: inconclusive [activator, single point]

CCn1c(O)c(/C=N/NC(=O)c2ccncc2)c(=O)n(CC)c1=S
Potency [1]: inactive | Potency [2]: active: 35.5 µM | Potency [3]: active: 25.1 µM | Potency [4]: inconclusive [inhibitor, single point] | Potency [5]: inconclusive [activator, full curve, poor fit]

COC(=O)C1=CN(c2c(C)cc(C)cc2C)C(N)=C(C#N)C1c1ccccc1 (stereo unspecified)
Potency [1]: inconclusive [inhibitor, partial curve, poor fit] | Potency [2]: inactive | Potency [3]: inconclusive [activator, partial curve, poor fit] | Potency [4]: inconclusive [inhibitor, partial curve] | Potency [5]: inconclusive [activator, single point]

COc1ccc(-c2nn(-c3ccccc3)cc2/C=C2/SC(=S)N(CCC(=O)O)C2=O)cc1
Potency [1]: inactive | Potency [2]: inconclusive [activator, partial curve] | Potency [3]: inconclusive [activator, partial curve, poor fit] | Potency [4]: inactive | Potency [5]: inconclusive [activator, full curve]

CC(C)(C)c1ccc(-n2nc(C#N)c(Cl)cc2=O)cc1
Potency [10]: active: 15.8 µM | Potency [11]: inconclusive [cytotoxic, single point] | Potency [1]: active: 42.6 µM | Potency [2]: inconclusive [activator, partial curve, poor fit] | Potency [3]: inconclusive [activator, full curve, poor fit] | Potency [4]: active: 0.338 µM | Potency [5]: inconclusive [activator, partial curve, poor fit]

COCc1c(C(=O)N2CCc3ccccc32)oc2ccccc12
Potency [1]: inactive | Potency [2]: inconclusive [activator, single point] | Potency [3]: active: 112 µM | Potency [4]: inconclusive [inhibitor, partial curve, poor fit] | Potency [5]: inconclusive [activator, full curve, poor fit]

CN(C)c1ccc(/C=C(/C(=O)c2ccc(Cl)cc2Cl)n2cncn2)cc1
Potency [1]: inconclusive [inhibitor, partial curve, poor fit] | Potency [2]: inconclusive [activator, partial curve, poor fit] | Potency [3]: active: 112 µM | Potency [4]: inconclusive [inhibitor, partial curve, poor fit] | Potency [5]: active: 70.8 µM

From PubChem BioAssay (NCATS)
